Results on six molecules are retold here after US20120220530A1 (NOVOZYMES BIOPHARMA DK A S, published 2012).

In assay [1] the target is T1, glutathione-S-transferase (GST)-fused shFcRn (human, UniProt P55899 part only; P61769 part only, limits assumed).
T1 construct: Made as in Berntzen et al. 2005 / FEBS J. 2008; also called shFcRn-GST; GST-tagged shFcRn; not shown: GST tag
The assay can be described thus: SPR, immobilized shFcRn (~1500 RU), 1:1 model.

In assay [2] the target is T1, glutathione-S-transferase (GST)-fused …. The experiment in a line: SPR, immobilized shFcRn, pH 5.5. The protocol: SPR experiments were carried out using a Biacore 3000 instrument (GE Healthcare).

T1 sequence (P55899 24-290 limits assumed, chain 1 of 2): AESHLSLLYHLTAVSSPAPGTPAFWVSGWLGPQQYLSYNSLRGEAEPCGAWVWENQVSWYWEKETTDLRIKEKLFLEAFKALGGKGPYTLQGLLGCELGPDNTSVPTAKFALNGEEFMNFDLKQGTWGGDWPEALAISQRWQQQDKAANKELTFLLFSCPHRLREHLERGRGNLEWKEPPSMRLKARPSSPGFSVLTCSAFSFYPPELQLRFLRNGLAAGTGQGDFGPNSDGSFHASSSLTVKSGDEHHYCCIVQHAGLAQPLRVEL
T1 sequence (P61769 21-119 limits assumed, chain 2 of 2, further chain): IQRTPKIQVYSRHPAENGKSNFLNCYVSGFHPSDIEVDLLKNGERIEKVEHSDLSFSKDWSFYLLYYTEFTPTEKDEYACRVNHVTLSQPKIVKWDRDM

B1: HSA with the sheep albumin C-terminus (ligand)
chain: DAHKSEVAHRFKDLGEENFKALVLIAFAQYLQQCPFEDHVKLVNEVTEFAKTCVADESAENCDKSLHTLFGDKLCTVATLRETYGEMADCCAKQEPERNECFLQHKDDNPNLPRLVRPEVDVMCTAFHDNEETFLKKYLYEIARRHPYFYAPELLFFAKRYKAAFTECCQAADKAACLLPKLDELR[about 200 residues not spelt out]NLIKQNCELFEQLGEYKFQNALLVRYTKKVPQVSTPTLVEVSRNLGKVGSKCCKHPEAKRMPCAEDYLSVVLNQLCVLHEKTPVSDRVTKCCTESLVNRRPCFSALEVDETYVPKEFNAETFTFHADICTLSEKERQIKKQTALVELVKHKPKATKEQLKAVMDDFAAFVEKCCKADDKETCFAEEGPKLVASTQAALA
notes: also called HSA-SheepC
In assay [1], B1 yielded a Kd of 600 nM, a koff of 0.0021 s⁻¹ and a kon of 3300 M⁻¹ s⁻¹.

B2: HSA with the rabbit albumin C-terminus (ligand)
chain: DAHKSEVAHRFKDLGEENFKALVLIAFAQYLQQCPFEDHVKLVNEVTEFAKTCVADESAENCDKSLHTLFGDKLCTVATLRETYGEMADCCAKQEPERNECFLQHKDDNPNLPRLVRPEVDVMCTAFHDNEETFLKKYLYEIARRHPYFYAPELLFFAKRYKAAFTECCQAADKAACLLPKLDELR[about 200 residues not spelt out]NLIKQNCELFEQLGEYKFQNALLVRYTKKVPQVSTPTLVEVSRNLGKVGSKCCKHPEAKRMPCAEDYLSVVLNQLCVLHEKTPVSDRVTKCCTESLVNRRPCFSALEVDETYVPKEFNAETFTFHADICTLSEKERQIKKQTALVELVKHKPKATKEQLKAVMDDFAAFVEKCCKADDKETCFAEEGPKLVESSKATLG
notes: also called HSA-RabC
As for B2, in assay [1], binding was put at a Kd of 400 nM, the koff was 0.0016 s⁻¹ and the kon amounted to 3500 M⁻¹ s⁻¹.

B3: HSA K573F (ligand)
chain: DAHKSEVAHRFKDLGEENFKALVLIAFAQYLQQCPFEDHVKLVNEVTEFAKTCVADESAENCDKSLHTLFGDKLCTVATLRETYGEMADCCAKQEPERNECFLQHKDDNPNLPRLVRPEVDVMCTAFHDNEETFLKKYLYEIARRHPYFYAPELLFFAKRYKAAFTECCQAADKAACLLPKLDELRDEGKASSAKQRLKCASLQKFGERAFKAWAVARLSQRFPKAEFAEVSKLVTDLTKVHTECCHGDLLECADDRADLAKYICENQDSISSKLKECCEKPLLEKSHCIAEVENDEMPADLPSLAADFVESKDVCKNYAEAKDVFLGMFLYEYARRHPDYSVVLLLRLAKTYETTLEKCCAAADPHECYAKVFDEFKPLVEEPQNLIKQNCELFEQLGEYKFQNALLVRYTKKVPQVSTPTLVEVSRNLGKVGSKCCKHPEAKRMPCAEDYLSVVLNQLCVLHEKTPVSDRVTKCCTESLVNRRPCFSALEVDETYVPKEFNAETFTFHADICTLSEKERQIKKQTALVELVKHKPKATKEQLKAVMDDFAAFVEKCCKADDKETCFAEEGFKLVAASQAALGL
Consider B3, for which the “fold lower KD than the parent HSA” value in assay [2] was above 10 fold.

B4: HSA K573H (ligand)
chain: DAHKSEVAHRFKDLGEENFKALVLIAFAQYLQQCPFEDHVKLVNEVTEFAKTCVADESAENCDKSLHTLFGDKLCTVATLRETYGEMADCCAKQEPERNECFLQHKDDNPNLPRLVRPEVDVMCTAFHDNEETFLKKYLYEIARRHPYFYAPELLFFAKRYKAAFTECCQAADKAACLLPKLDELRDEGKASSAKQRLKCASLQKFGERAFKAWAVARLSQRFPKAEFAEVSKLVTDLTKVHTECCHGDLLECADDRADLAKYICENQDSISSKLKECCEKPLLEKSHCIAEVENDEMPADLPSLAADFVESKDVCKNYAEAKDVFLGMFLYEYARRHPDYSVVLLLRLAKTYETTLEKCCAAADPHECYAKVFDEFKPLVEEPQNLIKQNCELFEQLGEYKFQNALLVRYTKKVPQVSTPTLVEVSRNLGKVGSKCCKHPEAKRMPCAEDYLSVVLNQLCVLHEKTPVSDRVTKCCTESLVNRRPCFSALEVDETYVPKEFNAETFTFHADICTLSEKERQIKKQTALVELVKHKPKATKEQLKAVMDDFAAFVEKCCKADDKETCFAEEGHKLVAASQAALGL
As to B4, in assay [2], the “fold lower KD than the parent HSA” value is above 10 fold.

B5: HSA K573W (ligand)
chain: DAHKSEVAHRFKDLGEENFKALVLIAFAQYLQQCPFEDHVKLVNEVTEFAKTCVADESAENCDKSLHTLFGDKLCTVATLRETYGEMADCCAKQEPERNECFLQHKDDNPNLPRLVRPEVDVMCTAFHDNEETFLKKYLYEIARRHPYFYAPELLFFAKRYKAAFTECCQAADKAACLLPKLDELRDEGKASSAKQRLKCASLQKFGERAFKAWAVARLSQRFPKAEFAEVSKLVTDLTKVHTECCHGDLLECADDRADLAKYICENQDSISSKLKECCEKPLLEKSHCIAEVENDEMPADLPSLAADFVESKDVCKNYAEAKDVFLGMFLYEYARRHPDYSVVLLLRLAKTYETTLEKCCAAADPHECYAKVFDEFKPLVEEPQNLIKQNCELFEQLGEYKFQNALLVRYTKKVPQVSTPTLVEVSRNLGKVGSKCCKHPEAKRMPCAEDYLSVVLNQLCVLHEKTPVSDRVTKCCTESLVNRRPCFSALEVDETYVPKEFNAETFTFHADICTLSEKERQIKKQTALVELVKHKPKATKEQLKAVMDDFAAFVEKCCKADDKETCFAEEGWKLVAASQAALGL
B5: the “fold lower KD than the parent HSA” value in assay [2] was above 10 fold.

B6: HSA K573Y (ligand)
chain: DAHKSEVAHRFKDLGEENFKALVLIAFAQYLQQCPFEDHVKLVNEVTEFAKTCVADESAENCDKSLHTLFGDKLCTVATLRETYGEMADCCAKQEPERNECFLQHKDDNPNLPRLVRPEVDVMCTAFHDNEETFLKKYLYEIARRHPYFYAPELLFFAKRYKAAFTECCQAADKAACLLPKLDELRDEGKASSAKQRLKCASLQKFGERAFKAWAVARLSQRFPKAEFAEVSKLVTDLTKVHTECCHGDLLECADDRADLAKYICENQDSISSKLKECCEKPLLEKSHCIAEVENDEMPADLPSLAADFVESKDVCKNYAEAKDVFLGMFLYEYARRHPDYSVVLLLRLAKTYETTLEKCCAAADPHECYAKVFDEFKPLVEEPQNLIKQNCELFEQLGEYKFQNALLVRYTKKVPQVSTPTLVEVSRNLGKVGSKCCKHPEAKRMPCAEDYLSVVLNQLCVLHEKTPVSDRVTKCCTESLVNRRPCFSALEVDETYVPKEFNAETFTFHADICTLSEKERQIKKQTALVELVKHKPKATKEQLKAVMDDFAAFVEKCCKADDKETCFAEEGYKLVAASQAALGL
B6: the “fold lower KD than the parent HSA” value in assay [2] was above 10 fold.

Usually Kd stands for the equilibrium constant for the complex coming apart. What is called koff is the rate constant with which the complex falls apart. A higher koff goes with a short-lived complex. One may read the kon as the second-order rate constant of association. A lower kon goes with slow association.
